PubChem BioAssay AID1963576 (National Center for Advancing Translational Sciences (NCATS), 2024)
About 60 (0.1%) of roughly 46,000 compounds were called active. About 3% were inconclusive and are not listed. Calls come from the whole dose curve; as a rule, active = well fitted inhibition curve with a large enough effect; inconclusive = small, poorly fitted or top-dose-only effect; inactive = no such curve, though single readings can be large or run the other way. Some of the results follow.

test: Primary qHTS assay for Inhibitors of ovarian cancer metastasis using an organotypic tumor microenvironment (TME) model.; note: nearly all actives have a fitted effect of over 65% in size;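 for activity change, negative = inhibition: plate controls were DMSO wells for no effect and tomatine positive control wells for full effect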; conditions: SKOV3ip1-GFP adhesion/invasion on 3D omental model, fluorescence; series mostly up to 45.8 µM; activity change, negative = inhibition: at the top concentration
Summary of the method: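 Primary human omental fibroblast/mesothelial 3D culture pre-formed 48 h. SKOV3ip1-GFP cells added with compounds (0.36-46 umol/L), incubated 2 h RT/16 h 37 C, fixed; GFP cells quantified at 488/509 nm.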

| SMILES | activity change, negative = inhibition | outcome |
| --- | --- | --- |
| Cc1ccc(CNC(=O)C(=O)NCC(c2cccnc2)N2CCN(c3ccccc3F)CC2)cc1 (stereo not drawn) | inactive: 16.1% |  |
| CCCS(=O)(=O)N1CCC(n2c(C(F)(F)F)nc3cccnc32)CC1 | inactive: -10.7% |  |
| COc1cccc2sc(N3CCN(C(=O)CCS(=O)(=O)c4ccc(F)cc4)CC3)nc12 |  | inactive |
| CN1CCN(c2ccc3nc(-c4c(N)c5c(F)cccc5[nH]c4=O)[nH]c3c2)CC1 | inactive: 11.8% |  |
| Cc1ccc(C)c(Cn2c3ccccc3c3cnn(CC(=O)NC(C)c4ccccc4)c(=O)c32)c1 (stereo not drawn) |  | inactive |
| COc1ccccc1CC(=O)Nc1ccc2nc(N3CCC(C)CC3)cc(C)c2c1 | inactive: 12.3% |  |
| CS(=O)(=O)N1CCc2cc(C(=O)Nc3cccc(F)c3)ccc21 |  | inactive |
| COCCNC(=O)Cn1ncc2c(C)n(Cc3ccc(C)cc3)c(C)c2c1=O | inactive: 8.87% |  |
| CCCOc1ccccc1C1Oc2nc(SC)nnc2-c2ccccc2N1C(C)=O (stereo not drawn) | inactive: 3.2% |  |
| CCCNC(=O)CN1CCN(c2ncc(NC(=O)c3ccc(Cl)cc3)cc2C(=O)O)CC1 | inactive: 1.6% |  |
| CCOC(=O)c1ccc(-c2ccc(/C=C(\C#N)C(=O)Nc3ccc(C)cc3OC)o2)cc1 | inactive: -19.7% |  |
| CC(C)(C)C(=O)OC1=CN(Cc2ccccc2)S(=O)(=O)c2ccccc21 | inactive: -5.33% |  |
| CSc1ccc(C2c3c(oc4ccccc4c3=O)C(=O)N2CCCN2CCOCC2)cc1 (stereo not drawn) |  | inactive |
| Cc1ccc(CN(Cc2ccco2)C(=O)c2oc3ccc(C)cc3c2C)cc1 | inactive: -11.5% |  |
| Cc1cccc(-n2ncc3c(N4CCCCCC4)ncnc32)c1 | inactive: 8.16% |  |
| Cc1ccc(C)c(CNC(=O)c2cnc3sc(N4CCCC4)nn3c2=O)c1 | inactive: 2.39% |  |
| CCOc1ccc(C(=O)c2cn(Cc3ccc(F)cc3)c3ccc(F)cc3c2=O)cc1 | inactive: -19.7% |  |
| Cc1cccc(N(C)C(=S)Oc2ccc3ccccc3c2)c1 | inactive: -9.47% |  |
| O=S(=O)(c1ccccc1)c1nc(-c2ccc(F)cc2)oc1N1CCCCCC1 | inactive: 0.268% |  |
| CCc1ccc(NC(=O)CSc2nc3ncccc3[nH]2)cc1 |  | inactive |
| CCOc1ccc(/C=C/C(=O)Nc2sc3c(c2C(=O)OC)CCC3)cc1 | inactive: 3.76% |  |

| SMILES | activity change, negative = inhibition | outcome |
| --- | --- | --- |
| COc1cccc(NC(=O)c2c(C(=O)Nc3ccccc3)sc3nc(C)cc(=O)n23)c1 | inactive: 5.76% |  |
| Cc1ccc(-c2cc(C(=O)N3CCN(c4ccccc4)CC3)c3ccccc3n2)cc1C | inactive: -20.6% |  |
| COC(=O)c1cc(NC(=O)CCc2c(C)nc3cc(-c4ccccc4)nn3c2C)cc(C(=O)OC)c1 | inactive: 20.6% |  |
| CC1CCN(S(=O)(=O)c2cc(C(=O)Nc3ccc(Br)cc3F)n(C)c2)CC1 |  | inactive |
| CCOc1ccccc1CNS(=O)(=O)c1csc(C(N)=O)c1 |  | inactive |
| Cc1sc2c(c1C)c(=O)n(-c1ccc(Cl)cc1)c(=O)n2Cc1c(F)cccc1Cl | inactive: 2.69% |  |
| CCOC(=O)c1c(S(=O)(=O)N2CCC(C(=O)N3CCN(c4cc(C)ccc4C)CC3)CC2)c(C)n(C)c1C | inactive: -11.5% |  |
| COc1cc(C2C(C(=O)Nc3ccccc3)=C(C)Nc3nc(SCc4ccccc4F)nn32)cc(OC)c1OC (stereo not drawn) | inactive: 16.7% |  |
| O=C(NCCc1csc2nc(-c3ccc(F)cc3)nn12)c1ccco1 | inactive: 19% |  |
| Cc1cccc(NC(=O)Cn2c(C(F)(F)F)nc3ccccc32)c1C |  | inactive |
| CCc1ccccc1NC(=O)c1nc(-c2ccncc2)no1 | inactive: -3.72% |  |
| CCOc1cc2c(cc1OCC)C(c1c(F)cccc1Cl)CC(=O)N2 (stereo not drawn) |  | inactive |
| COc1ccc(C)cc1NC(=O)Cn1cc(S(=O)(=O)Cc2ccccc2Cl)c2ccccc21 | inactive: 0.397% |  |
| Cc1ccc(N2CC(NC(=O)C(=O)c3c[nH]c4ccccc34)CC2=O)cc1 (stereo not drawn) | inactive: -21.3% |  |
| COc1ccccc1OCC(=O)NCC1(N(C)C)CCCCC1 | inactive: 0.707% |  |
| CC(C)CCNC(=O)c1ccc2c(c1)N(Cc1ccccc1F)C(=O)c1ccccc1S2=O (stereo not drawn) | inactive: 2.12% |  |
| CCN1CCCC1CNC(=O)c1cc(S(N)(=O)=O)ccc1OC (stereo not drawn) | inactive: -12.3% |  |
| Cc1ccc(Cn2c(CCCNC(=O)C3CCCCC3)nc3ccccc32)cc1 |  | inactive |
| O=C(Cn1ncc2c(Cl)cccc21)NCc1cccc(Br)c1 | inactive: -6.89% |  |
| N#C/C(=C\c1c(Oc2ccc(Br)cc2)nc2ccccn2c1=O)c1nc2ccccc2s1 | inactive: 7.41% |  |
| COC(=O)c1cccc(NC(=O)Nc2cc(C(=O)NCc3cccc(F)c3)ccc2N2CCCC2)c1 | inactive: 18.1% |  |

| SMILES | activity change, negative = inhibition | outcome |
| --- | --- | --- |
| Cc1ccc(Cc2nc3ccccc3nc2SCC(=O)N2CCCCC2C)cc1 (stereo not drawn) | inactive: 29.7% |  |
| O=C(CSc1nc(=O)n(Cc2cccnc2)c2c1CCC2)Nc1ccc(F)cc1F | inactive: 2.55% |  |
| COc1ccc(Cl)cc1NC(=O)c1cc(C)nn1-c1ccccc1 | inactive: 15.8% |  |
| CCOC(=O)c1c(NC(=O)c2cc(=O)c3ccc(C)cc3o2)sc(C)c1C | inactive: 7.73% |  |
| COc1cccc(N2CCN(S(=O)(=O)c3ccc4c(c3)CCCN4C(C)=O)CC2)c1 | inactive: 0.184% |  |
| Cc1nn(C(C)C(=O)NC2CCC(C)CC2)c(=O)c2cc3sccc3n12 (stereo not drawn) | inactive: 8.51% |  |
| CN(C)c1ccc(CNC(=O)CCCn2ccc3cc(S(=O)(=O)N4CCCC4)ccc32)cc1 | inactive: -6.1% |  |
| COc1ccccc1N1CCN(C(=O)c2cn(C)c3ccc(S(=O)(=O)N4CCOCC4)cc3c2=O)CC1 | inactive: -3.21% |  |
| CCCCN1CCc2nc(N3CCN(C)CC3)ncc2C1 | inactive: 1.67% |  |
| O=C(NCCc1csc(-c2cccnc2)n1)c1ccc(F)c(F)c1 |  | inactive |
| CC(=O)N1CCc2cc(Br)cc(S(=O)(=O)N3CCN(c4cccc(C)c4)C(C)C3)c21 (stereo not drawn) | inactive: -1.09% |  |
| COc1ccc(N2CCN(C(=O)CS(=O)(=O)c3cccc4nsnc34)CC2)cc1 |  | inactive |
| O=S(=O)(c1ccc(Cl)cc1)c1nnn2c1nc(N1CCCCC1)c1sccc12 | inactive: -4.85% |  |
| COc1ccc(OC)c(S(=O)(=O)N2CC=C(c3c(C)n(CC(=O)N4CCCC4)c4ccccc34)CC2)c1 | inactive: 1.97% |  |
| Cc1cccc(NC(=O)N2CCC(CN3CCOCC3)CC2)c1C | inactive: -10.5% |  |
| CC(CNC(=O)CCS(=O)(=O)c1ccc2c(c1)oc(=O)n2C)c1ccccc1 (stereo not drawn) | inactive: -7.28% |  |
| Cc1ccc2c(c1)-c1c(c(C(=O)N3CCN(c4cc(Cl)ccc4C)CC3)nn1C)CS2 | inactive: 4.44% |  |
| Cc1cn(C)c(CC(=O)N2CCN(c3ccccc3F)CC2)c1C(=O)O | inactive: 13.8% |  |
| COc1ccc(-c2nc3sc(CCNC(=O)c4ccccc4C)c(C)n3n2)cc1 |  | inactive |
| Cc1ccccc1NC(=O)CN(c1ccc(Cl)cc1Cl)S(=O)(=O)c1ccccc1 | inactive: 2.82% |  |
| Cc1c(C(=O)NCCc2ccc(S(N)(=O)=O)cc2)sc2nc3n(c(=O)c12)CCCC3 |  | inactive |
